Out of some 50,000 compounds screened, about 800 (1.6%) showed an effect of 50% or more. This is one part of the list.

This assay has as its target Bcl-2-like protein 10 (Homo sapiens) (UniProt Q9HD36). The assay is described as follows: TR3 peptide-Bcl-B binding displacers, biochemical primary FP assay, phenotype converters (AID 1240).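 Further: 0% = Bcl-B with tracer peptide and DMSO and 100% = tracer peptide lacking Bcl-B.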 The note with it: GST-Bcl-B / FITC-TR3 peptide fluorescence polarization; stronger effect = higher value; compound at 3.75 mg/L.
UniProt Q9HD36, sequence (Q9HD36 whole entry, looked up): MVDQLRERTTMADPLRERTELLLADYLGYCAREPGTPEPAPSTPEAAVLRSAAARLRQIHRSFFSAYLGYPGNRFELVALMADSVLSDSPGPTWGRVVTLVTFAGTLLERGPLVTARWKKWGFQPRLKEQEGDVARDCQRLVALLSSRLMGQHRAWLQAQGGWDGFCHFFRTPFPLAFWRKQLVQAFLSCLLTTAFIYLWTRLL
For the compound `O=C(COc1ccccc1)Nc1ccccc1C(=O)Nc1ccc(C(=O)O)cc1`, the displacement came out at 12.9%.
Consider `COC(=O)c1c(C)oc2ccc(NS(=O)(=O)c3ccc(F)cc3)cc12`, for which the displacement amounted to 11.6%.
To `COc1ccccc1CNC(=O)C1CC(=O)N(c2ccc(F)cc2)C1` (stereo unspecified) belongs 7.3%; to `CCOc1ccc(N2C(=O)NC(=O)/C(=C\c3ccc(N(CC)CC)cc3OC)C2=O)cc1`, 55.1%; to `O=C1C(=O)N(Cc2cccnc2)C(c2ccccc2Cl)/C1=C(\O)c1ccccc1` (stereo unspecified), -14%.
`CC(C(=O)NN)C1=NC(C)(C)Cc2ccccc21` (stereo unspecified): the displacement was -17.7%.
On to `COc1cc(NC(=O)c2cc([N+](=O)[O-])ccc2N2CCN(C)CC2)c2ncccc2c1`, for which the displacement is 5.1%.
`Cc1cc(C)cc(N(CC(=O)NCc2ccco2)S(=O)(=O)c2ccccc2)c1`: the displacement stood at 1.4%.
On to `O=C(c1cccs1)N1CCN(Cc2ccc(Br)cc2)CC1`, for which the displacement was -11.8%.
On to `O=c1c(-c2cccs2)[n+]([O-])c2ccccc2n1O`, for which the displacement is 69.4%.
In the case of `COc1cc(/C=C/c2nc3ccccc3c(=O)[nH]2)ccc1O`, the displacement was found to be 1.2%.
For the compound `C=CCn1c(SCC(=O)NCCCN2CCOCC2)nc2sc(C)c(C)c2c1=O`, the displacement was -0.6%.
To `COc1cccc(CN2CCN(Cc3cc(OC)ccc3OC)CC2)c1` belongs -9%; to `N#CC1=C(N)Oc2n[nH]c(-c3ccccc3)c2C1C1CCCCC1` (stereo unspecified), -7.2%; to `CC(=O)C1=C(Nc2ccccc2)CC(C)(O)C(C(C)=O)C1c1ccc(F)cc1` (stereo unspecified), 0.6%.
For `C/C(=N\N=C1\NC(=O)C(CC(=O)Nc2ccccc2C(F)(F)F)S1)c1ccc([N+](=O)[O-])cc1` (stereo unspecified), the displacement is 4.2%.
For `CC(NC(=O)c1ccccc1)C(=O)OCC(=O)Nc1ccc(S(N)(=O)=O)cc1` (stereo unspecified), the displacement was -4.7%.
`Cc1ccc(C(C)C)c(OCC(=O)Nc2cc(-c3nc4ccccc4o3)ccc2C)c1`: the displacement is -1.3%.
Consider `COc1ccc(NC(=O)CN(CCc2ccccc2)S(=O)(=O)c2ccccc2)c(OC)c1`, for which the displacement amounted to 2.5%.
For the compound `CC(C)OC(=O)C1C(=O)CC(C)(O)C(C(=O)OC(C)C)C1c1cccc(F)c1` (stereo unspecified), the displacement is -0.6%.
With `CCCC(=O)N1CCN(Cc2ccccc2)CC1` the figure was -2.6%; with `O=C(COc1ccccc1Cl)Nc1ccc2oc(-c3ccncc3)nc2c1`, 136%; with `CCOC(=O)C(=CNc1ccccc1C(C)C)C(=O)OCC`, -7.2%.
To `Cn1c(COc2cccc3ccccc23)nc2ccccc21` belongs -9.7%; to `CCOC(=O)c1sc(NC(=O)c2cncc(Br)c2)nc1C`, 24.1%.
With `COc1cc(C(=O)Nc2ncc(Cc3cccc(Cl)c3)s2)cc(OC)c1OC` the figure was 10.7%.
With `Cc1ccc(OCc2nnc(NC(=O)C3CCCCC3)s2)cc1`, the displacement worked out at 8.7%.
Regarding `O=C(CCN1C(=O)/C(=C/c2ccccc2)SC1=S)NNC(=O)c1ccccc1Br`, the displacement stood at 1.4%.
With `Cc1cc(CN2CCOCC2)c(O)c(C)n1`, the displacement turned out to be 7.9%.
Regarding `Cc1oc2ccccc2c1/C=N/n1cnc2sc3c(c2c1=O)CCCC3`, the displacement was 9.1%.
On to `CCOc1ccc2nc(SCC(=O)C(C)(C)C)[nH]c2c1`, for which the displacement worked out at 0.7%.
In the case of `O=C1CC(c2cccc([N+](=O)[O-])c2)Sc2nc3ccccc3n21` (stereo unspecified), the displacement amounted to 10.8%.
Take `O=C(Cn1c(=O)n(CC(=O)NCc2ccccc2)c2ccccc21)NCc1ccccc1`: the displacement amounted to 12.7%.
With `CN(C)c1ccc(/C=C2\NC(=O)c3ccccc3C2=O)cc1` the figure was 5.2%.
`Cc1cccc(-c2noc(COc3ccc(Cl)cc3)n2)c1`: the displacement was 6%.
For `COc1cc(C(=O)Nc2ccccc2)c2ccccc2n1`, the displacement is -0.3%.
`CCc1ccc(NC2=C(Cl)C(=O)N(c3ccccc3Cl)C2=O)cc1`: the displacement is -1.9%.
With `CCOc1cc(C(=O)NCCN2CCOCC2)cc(OCC)c1OCC`, the displacement is 1.7%.
With `CCc1ccc(-n2c(C)cc(/C=N/NC(N)=O)c2C)cc1`, the displacement is 6.6%.
For `Cc1ccnc(NS(=O)(=O)c2ccc(N3C(=O)c4c(Cl)c(Cl)c(Cl)c(Cl)c4C3=O)cc2)n1`, the displacement came out at 16.2%.
As to `CC(C)OC(=O)c1c(-c2ccc(Br)cc2)csc1NC(=O)CCC(=O)O`, the displacement is 6.9%.
Consider `CCCCCCCc1ccc(C(=O)Nc2nccs2)cc1`, for which the displacement was -7.1%.
Regarding `O=P(O)(O)CP(=O)(c1ccccc1)c1ccccc1`, the displacement came to 11.6%.
On to `O=C(/C=C/c1ccccc1)Nc1nc2ccc(Cl)cc2s1`, for which the displacement is -9.2%.
With `Cc1ccc(Cl)cc1N(Cc1ccc(C(=O)N2CCN(c3ccccc3)CC2)cc1)S(=O)(=O)c1ccccc1` the figure was -15.1%; with `Brc1ccc(-c2cc(-c3ccccc3)nc(N/N=C/c3cccnc3)n2)cc1`, -13.9%.
On to `COc1cc(N(C)C)c([N+](=O)[O-])cc1C(=O)N1CCCC(O)C1` (stereo unspecified), for which the displacement was found to be 20.2%.
`O=C(Nc1cc(Cl)ccc1C(=O)O)c1ccc(Br)cc1`: the displacement was -0.2%.
With `O=C(NCCOCc1ccccc1)C(c1ccccc1)c1ccccc1`, the displacement was -2.7%.
With `CCOC(=O)CCc1nc2ccc(O)cc2[nH]1` the figure was 3.4%; with `O=C1C2ON(c3ccc(Cl)cc3)C(c3cc(Br)ccc3O)C2C(=O)N1c1ccccc1` (stereo unspecified), 9.4%; with `CCOC(=O)c1ccc(NC(=O)CCCOc2ccc(Cl)cc2Cl)cc1`, -12.3%.
Turning to `O=C1/C(=C\N2CCOCC2)c2ccccc2C(=O)N1c1ccccc1`, the displacement was determined as 1.6%.
To `Cc1ccc([N+](=O)[O-])cc1-c1ccc(/C=C(\C#N)c2nc3ccccc3[nH]2)o1` belongs -0.7%.
To `COc1cccc(-c2cc(C(=O)Nc3ncccn3)c3ccccc3n2)c1` belongs 5.4%; to `Cc1cc(/C=N/N2C(=O)c3ccccc3C2=O)c(C)n1C`, -9.7%.
As for `O=C(Cc1ccccc1)N1N=C(c2ccc(F)cc2)CC1(O)C(F)(F)F` (stereo unspecified), the displacement came out at 2.4%.
With `O=C(Cn1c2ccccc2c(=O)c2ccccc21)N/N=C/c1cc([N+](=O)[O-])ccc1N1CCCCC1` the figure was -6.8%; with `COc1ccc(C2=NOC(O)(C(F)(F)F)C2)cc1` (stereo unspecified), -10.2%; with `Cc1ccc(S(=O)(=O)/N=C2/NC(=O)/C(=C/c3cc([N+](=O)[O-])ccc3Cl)S2)cc1`, 8.7%.
For `O=c1c2ccccc2c2nc3c(c(-c4ccccc4O)c12)c(=O)c1ccccc13`, the displacement is 4.4%.
On to `O=C(COc1ccc(Br)cc1)N1CCN(c2ccccc2)CC1`, for which the displacement was 4.1%.
With `CC(C)COc1ccc(C(=O)Nc2cccc([N+](=O)[O-])c2)cc1` the figure was 11.7%.
For `O=C(Nc1cc(C(F)(F)F)ccc1Cl)C(c1ccccc1)c1ccccc1`, the displacement stood at 3.5%.
`CC1=C(C(=O)Nc2ccccc2Cl)C(c2cccc(Cl)c2)NC(=O)N1` (stereo unspecified): the displacement is -4.9%.
To `COC(=O)C(CCSC)NC(=O)c1cccs1` (stereo unspecified) belongs -5.1%; to `CN1CCN(C(=O)c2cnn3c(C(F)(F)F)cc(-c4ccco4)nc23)CC1`, 6.4%; to `Cc1cc(NC(=O)c2ccc(Cl)c([N+](=O)[O-])c2)ccc1Br`, 14.6%.
Turning to `CCN(CC)CCCC(C)NC(=O)c1c(NC(=O)c2ccccc2)sc(C)c1C` (stereo unspecified), the displacement was found to be 1.2%.
For `O=C(NCc1cccnc1)c1cc2nc(-c3cccs3)cc(C(F)(F)F)n2n1`, the displacement was -2.8%.
Take `CCc1cc2c(=O)n(-c3ccccc3)c(SCC(=O)c3ccc(OC)cc3)nc2s1`: the displacement came out at 4.1%.
To `COc1ccc(C(=O)/C=C/c2sccc2C)cc1OC` belongs -4.7%; to `Cc1ccc(S(=O)(=O)N2C(=S)SCC2(C)C)cc1`, 7.2%.
`CCOC(=O)c1ccc(NC(=O)c2ccccc2OCC)cc1`: the displacement was 4.8%.
To `CCC(=O)Nc1nc(-c2ccc(Cl)c(Cl)c2)cs1` belongs 4.4%; to `COc1ccccc1C1Nc2cc3ccccc3cc2C2=C1C(=O)CC(C)(C)C2` (stereo unspecified), 9%.
With `Cc1ccnc(NS(=O)(=O)c2ccc(NC(=O)c3cc(Cl)ccc3[N+](=O)[O-])cc2)n1`, the displacement came out at 7%.
With `CC1CCc2c(sc(NC(=O)CSc3nncn3C)c2C#N)C1` (stereo unspecified) the figure was -5.3%.
To `O=C(CN(Cc1ccccc1)S(=O)(=O)c1ccccc1)Nc1cccc(Cl)c1` belongs 1.8%; to `O=C(/C=C\c1ccccc1)Nc1ccc2nn(-c3ccc(F)cc3)nc2c1`, -6.6%; to `CCc1cc2c(C)c(CC)c(=O)oc2cc1OCC(C)=O`, 13.2%.
As to `CN1CCN(C(=O)c2cc3ccccc3oc2=O)CC1`, the displacement was determined as 8.4%.
Turning to `COc1ccc(-c2cc(C(=O)Nc3sc4c(c3C(N)=O)CCCC4)c3ccccc3n2)cc1OC`, the displacement is 2.6%.
To `COc1ccc(CN2CCN(C3CCN(Cc4ccccc4)CC3)CC2)c(OC)c1` belongs -6.3%; to `O=C(NCCN1CCOCC1)C1CCCC1`, -3.4%; to `C=CCn1c(SCC(=O)N2CCOCC2)nc(O)c(Cc2ccccc2)c1=O`, -0.9%.
Turning to `O=C(Nc1ccc(Cl)cc1)c1ccccc1C(F)(F)F`, the displacement is 9.7%.
For the compound `CC1=C(C(=O)OC(C)C)C(c2ccc(F)cc2)C(C(=O)OC(C)C)=C(C)N1`, the displacement amounted to 54.7%.
To `CCOC(=O)COc1ccc2cc(-c3nc4ccccc4[nH]3)c(=O)oc2c1` belongs 7.3%; to `CCCc1cc(=O)n2[nH]c(-c3cccc(C)c3)cc2n1`, 12.6%; to `COc1cc(OC)cc(C(=O)Nc2cc(C(F)(F)F)cc(C(F)(F)F)c2)c1`, -4.9%.
Turning to `Oc1ccc(Br)cc1/C=N/Nc1ncc(Br)cn1`, the displacement was -11.3%.
For `S=C(Nc1ccc2c(c1)oc1ccccc12)Nc1cccc2ccccc12`, the displacement is -2.1%.
With `CN(C1=NC(=O)S/C1=C\c1ccc([N+](=O)[O-])cc1)c1ccc(O)cc1` the figure was 16.4%; with `CC(NC(=O)c1cc2cc([N+](=O)[O-])ccc2oc1=O)c1ccccc1` (stereo unspecified), 12.2%.
Take `Cc1cc(Br)c2c(c1)c(N=NC(N)=S)c(O)n2C`: the displacement stood at 4.9%.
On to `O=C1c2cccc3cccc(c23)C(=O)N1CCc1nc2sc3c(c2c(=O)[nH]1)CCCC3`, for which the displacement was -6%.
On to `COc1ccccc1N1CCN(/N=C/c2ccc(C(=O)O)cc2)CC1`, for which the displacement came out at 21%.
As to `COc1ccc(/C=C2\SC(=Nc3ccc(C)cc3)N(c3ccc(C)cc3)C2=O)cc1C(=O)O`, the displacement was -49.6%.
For `CC(C)OC(=O)C1C(=O)CC(C)(O)C(C(=O)OC(C)C)C1c1cccc([N+](=O)[O-])c1` (stereo unspecified), the displacement was -22.5%.
`Cn1cnnc1SCC(=O)N1c2ccccc2Sc2ccccc21`: the displacement was found to be 0.1%.
`COc1ccc(N2C(=O)NC(=O)/C(=C/c3cccn3-c3ccc([N+](=O)[O-])cc3)C2=O)cc1`: the displacement was -1.7%.
For `O=C(N/C(=C/c1cccs1)C(=O)N1CCOCC1)c1cccs1`, the displacement was -12.2%.
Turning to `CC(=O)c1cccc(NC(=O)C(Sc2ccccc2)c2ccccc2)c1` (stereo unspecified), the displacement is -4.5%.
To `CC(C)(C)CC(C)(C)NC(=O)CSc1nnc(-c2cccc(F)c2)n1-c1ccccc1` belongs -14.6%; to `COc1ccc(N2C(=O)c3ccc(C(=O)Nc4ccccc4I)cc3C2=O)cc1`, 10%.

For the origin of these results see PubChem BioAssay AID1240 (Sanford-Burnham Center for Chemical Genomics, 2008).
